In the supplement of paper PMC10126150:
Sequences with one replicate were seen in a single cluster, so their values are uncertain.

System: ATP
Test: switch fluorescence ratio, 500 uM ATP over buffer (Cy3 cluster intensity, sum of 5 cycles each) (fold (ratio)); higher = stronger signal-on switching upon ATP binding; sequences stand for … in TCGTCGGCAGCGTCAGATGTGTATAAGAGACAGTTTTTTTTTTTTTTTTTTTTTTTTT…TC
Conditions: aptamer strand: ATP DNA aptamer (quencher-CACCTGGGGGAGTATTGCGGAGGAAGG + anchor), 100 nM annealed; ATP concentration: 500 uM; one replicate
Summary of the method: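 Between each of five buffer/ATP cycles, the flow-cell was stripped with NaOH and re-annealed. Each cycle imaged Cy3-labelled switching-strand clusters, annealed to 100 nM quencher-labelled ATP aptamer on a modified Illumina MiSeq flow-cell, first in selection buffer and then after 15 min with 500 uM ATP at 22 °C. The fluorescence ratio is summed target-cycle over summed buffer-cycle Cy3 intensity per cluster, averaged per switch-domain sequence, with clusters outside 100-1000 RFU excluded.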
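Further: ATP exposure 15 min at 22 °C before imaging.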

## GGTTGGGCCG
  switch fluorescence ratio: 0.985

## TTAGTTGAAA
  switch fluorescence ratio: 0.985

## GCTCGTGTTT
  switch fluorescence ratio: 0.958

## TCCTTATCGT
  switch fluorescence ratio: 0.97

## AACGCTCGCG
  switch fluorescence ratio: 0.976

## GTTGATCAAA
  switch fluorescence ratio: 1.02

## CCTATGCTCC
  switch fluorescence ratio: 2.72

## ATGTTCAATA
  switch fluorescence ratio: 1.05

## TTATACGGGC
  switch fluorescence ratio: 1.1

## AGACAATATG
  switch fluorescence ratio: 0.938

## GGAGTAGTTG
  switch fluorescence ratio: 1.01

## CATTAGGACG
  switch fluorescence ratio: 0.981

## AGTTCGTTGG
  switch fluorescence ratio: 0.999

## TTGCGGCAGT
  switch fluorescence ratio: 0.986

## GGGCGGGTTC
  switch fluorescence ratio: 1.04

## ATATGTGCTG
  switch fluorescence ratio: 1.04

## AATACGCACG
  switch fluorescence ratio: 1.64

## CCCCTTTCTA
  switch fluorescence ratio: 0.981

## GGATAAGCAA
  switch fluorescence ratio: 1.47

## TTAAGAG
  switch fluorescence ratio: 1.02

## AAGGTATAGG
  switch fluorescence ratio: 0.988

## GAGCGCCTGG
  switch fluorescence ratio: 1.05

## GCCCTGCCGC
  switch fluorescence ratio: 1.13

## GTCAGGATGT
  switch fluorescence ratio: 1.01

## TCAGCCAGGA
  switch fluorescence ratio: 1

## CGGCATAGGG
  switch fluorescence ratio: 0.934

## GAGTGTTGAG
  switch fluorescence ratio: 0.979

## CTAAATCGAA
  switch fluorescence ratio: 1.03

## GTTTTCTCGC
  switch fluorescence ratio: 0.99

## GAATGTAGAG
  switch fluorescence ratio: 1.02

## TGCTATTAAC
  switch fluorescence ratio: 1.03

## ATCTTCGCTC
  switch fluorescence ratio: 1.44

## TCGGCGTAGT
  switch fluorescence ratio: 0.953

## TGGTCTAAGT
  switch fluorescence ratio: 1

## TCCGATCCGG
  switch fluorescence ratio: 1.09

## CGTTGAGGCT
  switch fluorescence ratio: 1.02

## GTTTTCATTC
  switch fluorescence ratio: 1.04

## GGTGGACCGT
  switch fluorescence ratio: 0.987

## TGTTTGTGGG
  switch fluorescence ratio: 0.993

## ATCCCCTATG
  switch fluorescence ratio: 1.12

## CGTGAGGCTG
  switch fluorescence ratio: 0.948

## ATTTCCGTGT
  switch fluorescence ratio: 0.961

## TGGGGCTTCC
  switch fluorescence ratio: 1.81

## GCGGTTTAAC
  switch fluorescence ratio: 1.02

## CCCTTGGCTT
  switch fluorescence ratio: 1.03

## GATGACATTG
  switch fluorescence ratio: 1.12

## TTACGGCCGT
  switch fluorescence ratio: 1

## CGCTGTTGAC
  switch fluorescence ratio: 1.1

## AAGAGAACAC
  switch fluorescence ratio: 1.04

## AGACTATCCT
  switch fluorescence ratio: 1.05

## AATACTTAAG
  switch fluorescence ratio: 0.983

## TATATACTGC
  switch fluorescence ratio: 1.03

## AGTAGAGTCA
  switch fluorescence ratio: 1.01

## GGGGTGTCCG
  switch fluorescence ratio: 1.02

## ACGACTGCA
  switch fluorescence ratio: 2.3

## AAGGTGTCTA
  switch fluorescence ratio: 0.961

## GTTAGATGAA
  switch fluorescence ratio: 0.988

## GAGATCACAC
  switch fluorescence ratio: 1.01

## TACTTGTGAA
  switch fluorescence ratio: 1.04

## ATACGCGCCG
  switch fluorescence ratio: 1.09

## GACTTAAGTC
  switch fluorescence ratio: 1.02

## TGTATGACCG
  switch fluorescence ratio: 0.991

## TGTGCTGTT
  switch fluorescence ratio: 0.944

## TGATGCCCCG
  switch fluorescence ratio: 1.01

## ACGTTAAACT
  switch fluorescence ratio: 1.14

## GTAGGTACGA
  switch fluorescence ratio: 0.991

## AGCTGAGTG
  switch fluorescence ratio: 0.998

## TCCTGATAAC
  switch fluorescence ratio: 1.07

## TCTCGCCACC
  switch fluorescence ratio: 1.15

## GGGGCGCTCG
  switch fluorescence ratio: 1.04

## TCGAAGCTGA
  switch fluorescence ratio: 2.28

## GTTTACTTAA
  switch fluorescence ratio: 0.986

## ATGAGGAAAT
  switch fluorescence ratio: 2.06

## GGTAGGAATC
  switch fluorescence ratio: 1.02

## CTTCCAGATC
  switch fluorescence ratio: 1.17

## TCGAGTACAG
  switch fluorescence ratio: 0.993

## TAAAATACTC
  switch fluorescence ratio: 1.21

## CCCTGATGAA
  switch fluorescence ratio: 1.01

## ATTCTGGCTT
  switch fluorescence ratio: 0.972

## CCCGCCAAGA
  switch fluorescence ratio: 3.06

## TCCCTTTAAA
  switch fluorescence ratio: 0.989

## AAAGGTAAAG
  switch fluorescence ratio: 1.01

## TGGATGAAGC
  switch fluorescence ratio: 0.968

## CGACCTCTGC
  switch fluorescence ratio: 1.75

## AACTTGGTGC
  switch fluorescence ratio: 1.03

## CCGCGTCCGT
  switch fluorescence ratio: 1.35

## CTCTTAAAGG
  switch fluorescence ratio: 1.01

## GCGACTGTT
  switch fluorescence ratio: 1.01

## CGCATACGCG
  switch fluorescence ratio: 1.07

## CTTTACGACC
  switch fluorescence ratio: 1.3

## GCTTACAG
  switch fluorescence ratio: 1.02

## TTGACAACGC
  switch fluorescence ratio: 0.995

## GTAACATTGT
  switch fluorescence ratio: 0.981

## CGATTGGTGA
  switch fluorescence ratio: 0.986

## ACAGCCGTGG
  switch fluorescence ratio: 1.09

## CAGCTGACC
  switch fluorescence ratio: 1.07

## CTCCTAAGAA
  switch fluorescence ratio: 1.04

## AAGGCAGAGA
  switch fluorescence ratio: 1.07

## TGAGTCTAGA
  switch fluorescence ratio: 1.01

## GAACAGTACA
  switch fluorescence ratio: 1.26

## GTACGTAAGA
  switch fluorescence ratio: 1.37

## CCATTGAGAG
  switch fluorescence ratio: 1.01

## TGGGCATGAA
  switch fluorescence ratio: 0.967

## ACTTTCTGC
  switch fluorescence ratio: 1.01

## CATCCTAGGA
  switch fluorescence ratio: 1.02

## CTTTATCTTT
  switch fluorescence ratio: 0.986

## AACTGCACCG
  switch fluorescence ratio: 1.15

## TGTCGATTGT
  switch fluorescence ratio: 0.947

## TCGCGTCGGG
  switch fluorescence ratio: 0.991

## CGACCGACCG
  switch fluorescence ratio: 1.08

## CCGAGTTTT
  switch fluorescence ratio: 1.05

## ACTAGTAAAA
  switch fluorescence ratio: 0.971

## GAGTACCCAC
  switch fluorescence ratio: 1.07

## GCAGCCTAAT
  switch fluorescence ratio: 0.998

## GTCGCGGGCC
  switch fluorescence ratio: 0.959

## GGTACTTCAT
  switch fluorescence ratio: 1.03

## GCTCCGGAGA
  switch fluorescence ratio: 1.16

## GTGTTGTGCC
  switch fluorescence ratio: 0.948

## GACAGCTCT
  switch fluorescence ratio: 0.995

## GAAGCACACT
  switch fluorescence ratio: 1.12

## ATAGTCCGCA
  switch fluorescence ratio: 2.59

## GCTTACACGG
  switch fluorescence ratio: 1.06

## ATGTCAATGT
  switch fluorescence ratio: 1.03

## ATAGTTCAC
  switch fluorescence ratio: 0.987

## GCCACCGGA
  switch fluorescence ratio: 0.956

## ACGGGCAGGT
  switch fluorescence ratio: 1.04

## CCAAAATAGG
  switch fluorescence ratio: 1.04

## ATGTGCTCAT
  switch fluorescence ratio: 1.04

## CACTATACAA
  switch fluorescence ratio: 1.29

## TAAAGATGAC
  switch fluorescence ratio: 1.07

## ATCAGCATTG
  switch fluorescence ratio: 0.998

## TCGTCAAA
  switch fluorescence ratio: 1.03

## TATCCTCCTA
  switch fluorescence ratio: 1.06

## CGAGAACGCT
  switch fluorescence ratio: 1.02

## ACTGCTTAAA
  switch fluorescence ratio: 0.997

## AGAGTGAGCA
  switch fluorescence ratio: 0.984

## AATGCTCCTC
  switch fluorescence ratio: 1.25

## GGCTTCAAAT
  switch fluorescence ratio: 1.01

## TTGCTAACAA
  switch fluorescence ratio: 0.976

## TCATAACGGA
  switch fluorescence ratio: 0.992

## GCCTCTTTCG
  switch fluorescence ratio: 0.944

## GGTGGAATAT
  switch fluorescence ratio: 1.03

## TTATATGACT
  switch fluorescence ratio: 1.04

## GTGGTATTAG
  switch fluorescence ratio: 0.957

## CATCACCCAG
  switch fluorescence ratio: 1.49

## CGTTGGGTAG
  switch fluorescence ratio: 1.04

## CGTATTTT
  switch fluorescence ratio: 0.937

## AGTATGGATG
  switch fluorescence ratio: 0.985

## CAGGGACATA
  switch fluorescence ratio: 1.02

## GGTATTACCG
  switch fluorescence ratio: 0.956

## AAAGCGAACG
  switch fluorescence ratio: 0.974

## CTGGTAATTA
  switch fluorescence ratio: 0.976

## GCAGATGTAG
  switch fluorescence ratio: 0.994

## GATCCCAGGT
  switch fluorescence ratio: 3.11

## GTGGTGCC
  switch fluorescence ratio: 0.99

## ATTTTCGGGC
  switch fluorescence ratio: 0.975

## CGGCGCCTGG
  switch fluorescence ratio: 1.03
